PubChem BioAssay AID504333 (National Center for Advancing Translational Sciences (NCATS), 2011)
Among all 360,000 compounds or so, about 16,000 (4.4%) were called active. Inconclusive means that the source gave no clear call. Such entries were picked first, then a sample of the others. Calls follow the shape of the dose curve; as a rule, active = well fitted inhibition curve with a large enough effect; inconclusive = small, poorly fitted or top-dose-only effect; inactive = no such curve, though single readings can be large or run the other way. Where the call is inconclusive, the potency comes from a doubtful curve fit.

Molecular target: Bromodomain adjacent to zinc finger domain protein 2B (Homo sapiens) (UniProt Q9UIF8)
Chain of UniProt Q9UIF8 (Q9UIF8 whole entry, looked up, the tested form may be a part): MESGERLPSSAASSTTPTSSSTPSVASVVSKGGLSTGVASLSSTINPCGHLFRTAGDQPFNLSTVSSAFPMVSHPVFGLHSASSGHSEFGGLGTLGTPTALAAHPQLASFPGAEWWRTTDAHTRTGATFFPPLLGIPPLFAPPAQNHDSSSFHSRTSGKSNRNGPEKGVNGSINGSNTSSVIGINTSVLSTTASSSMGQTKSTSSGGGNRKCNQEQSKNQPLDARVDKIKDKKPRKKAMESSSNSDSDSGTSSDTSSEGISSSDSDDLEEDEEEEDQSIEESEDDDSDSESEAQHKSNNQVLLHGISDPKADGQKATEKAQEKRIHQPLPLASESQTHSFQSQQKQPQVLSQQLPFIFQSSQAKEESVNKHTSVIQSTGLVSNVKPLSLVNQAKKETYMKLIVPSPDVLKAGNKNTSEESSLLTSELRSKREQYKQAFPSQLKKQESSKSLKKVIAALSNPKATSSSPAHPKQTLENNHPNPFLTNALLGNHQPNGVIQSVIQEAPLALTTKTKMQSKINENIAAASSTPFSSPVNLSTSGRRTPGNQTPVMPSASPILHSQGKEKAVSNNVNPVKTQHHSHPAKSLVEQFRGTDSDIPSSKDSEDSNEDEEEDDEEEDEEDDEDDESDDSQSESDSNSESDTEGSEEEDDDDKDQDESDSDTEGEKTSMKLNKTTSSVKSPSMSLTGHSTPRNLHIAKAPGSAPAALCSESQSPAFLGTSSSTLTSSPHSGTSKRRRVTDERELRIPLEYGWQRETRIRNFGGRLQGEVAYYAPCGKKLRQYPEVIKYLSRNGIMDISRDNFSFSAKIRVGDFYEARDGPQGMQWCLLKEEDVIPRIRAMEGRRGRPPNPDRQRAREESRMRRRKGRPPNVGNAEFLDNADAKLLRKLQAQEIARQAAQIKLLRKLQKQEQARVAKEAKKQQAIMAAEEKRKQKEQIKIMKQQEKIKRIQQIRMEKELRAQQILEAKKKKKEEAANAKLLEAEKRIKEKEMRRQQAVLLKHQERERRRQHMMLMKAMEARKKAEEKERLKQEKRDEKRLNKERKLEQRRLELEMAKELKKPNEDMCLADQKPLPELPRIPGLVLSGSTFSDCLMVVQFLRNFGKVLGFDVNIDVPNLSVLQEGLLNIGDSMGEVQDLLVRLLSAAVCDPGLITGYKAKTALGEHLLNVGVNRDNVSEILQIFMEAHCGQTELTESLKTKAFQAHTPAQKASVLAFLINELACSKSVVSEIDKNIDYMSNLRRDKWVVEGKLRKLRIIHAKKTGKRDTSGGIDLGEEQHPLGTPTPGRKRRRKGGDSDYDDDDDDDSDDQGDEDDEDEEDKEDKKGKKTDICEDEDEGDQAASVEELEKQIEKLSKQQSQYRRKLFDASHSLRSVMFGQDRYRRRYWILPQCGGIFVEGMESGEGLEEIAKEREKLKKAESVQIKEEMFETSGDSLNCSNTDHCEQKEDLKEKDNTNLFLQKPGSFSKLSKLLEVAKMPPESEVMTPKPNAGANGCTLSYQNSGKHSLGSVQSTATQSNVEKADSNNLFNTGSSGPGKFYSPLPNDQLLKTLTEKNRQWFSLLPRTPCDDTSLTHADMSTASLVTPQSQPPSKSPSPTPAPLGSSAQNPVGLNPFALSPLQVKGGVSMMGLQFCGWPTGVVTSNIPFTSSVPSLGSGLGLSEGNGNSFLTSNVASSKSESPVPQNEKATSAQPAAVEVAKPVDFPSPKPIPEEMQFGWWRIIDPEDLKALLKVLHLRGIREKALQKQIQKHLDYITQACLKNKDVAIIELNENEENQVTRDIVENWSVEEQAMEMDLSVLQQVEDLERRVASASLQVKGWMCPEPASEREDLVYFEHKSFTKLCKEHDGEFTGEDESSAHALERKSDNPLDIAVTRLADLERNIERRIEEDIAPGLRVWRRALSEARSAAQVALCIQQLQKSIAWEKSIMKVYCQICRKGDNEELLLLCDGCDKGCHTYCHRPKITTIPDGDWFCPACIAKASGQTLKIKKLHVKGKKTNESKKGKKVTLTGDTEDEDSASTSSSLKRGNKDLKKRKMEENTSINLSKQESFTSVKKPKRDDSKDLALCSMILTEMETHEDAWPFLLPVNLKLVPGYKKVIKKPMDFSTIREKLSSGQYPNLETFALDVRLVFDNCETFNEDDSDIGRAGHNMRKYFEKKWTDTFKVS
Assay: qHTS Assay for Inhibitors of BAZ2B; also: nearly all actives have a fitted effect of over 60% in size
Conditions: AlphaScreen BAZ2B-H3K14Ac peptide displacement; series mostly up to 114 µM
How it was run: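 BAZ2B (50 nM) with biotin-H3(5-23)K14Ac peptide (50 nM) in PBS pH 7.4, 0.01% Tween-20, preformed 30 min, then compound 30 min at room temperature; top concentration 110uM. AlphaScreen streptavidin donor/nickel chelate acceptor beads (10 ug/mL final), 20 min dark, signal read.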
Potency is read from the fitted curve at half-maximal effect; tags tell the direction and shape of the fitted curve.

SMILES | Potency
CCOC(=O)c1nnc(-c2cccs2)nc1NC(C)C | inconclusive: 89.1 µM [inhibitor, single point]
O=C(N/N=C/c1ccccn1)c1ccco1 | inconclusive: 44.7 µM [inhibitor, partial curve]
CCOC(=O)N1CCc2[nH]c3ccc(C)cc3c2C1 | inconclusive: 100 µM [inhibitor, partial curve, poor fit]
CCOc1ccccc1CNC(=O)Cn1c(-c2ccccc2)cc(C(C)=O)c1C | inactive
COCCCN1C(=O)C(O)=C(C(=O)c2ccco2)C1c1ccc(Br)cc1 (stereo unspecified) | inconclusive: 89.1 µM [inhibitor, single point]
CCS(=O)(=O)c1ccc2oc(=O)c(/C=C(\O)c3ccc(Cl)cc3)nc2c1 | inconclusive: 56.2 µM [inhibitor, partial curve]
Cc1ccn2c(=O)c(C(=O)NCCc3ccccc3)c(O)nc2c1 | inactive
O=C(CCc1nc(-c2cccs2)no1)Nc1ccccc1[N+](=O)[O-] | inconclusive: 44.7 µM [inhibitor, partial curve]
COCCCNC(=S)N/N=C/c1ccccc1O | active: 10 µM
COc1ccc(OC)c(C(c2nnnn2C(C)(C)C)N2CCc3ccccc3C2)c1 (stereo unspecified) | inconclusive: 79.4 µM [inhibitor, single point]
O=C1CC(=O)N2N=C(c3ccc([N+](=O)[O-])cc3)SC2=N1 | inconclusive: 79.4 µM [inhibitor, single point]
COc1cc(NC(=O)c2ccccc2)c(OC)cc1NC(=O)CN1C(=O)N(C)C2(CCCCC2)C1=O | inconclusive: 79.4 µM [inhibitor, single point]
CC(=O)N(c1nc(CCl)cs1)c1cccc(C)c1C | inconclusive: 56.2 µM [inhibitor, partial curve]
O=[N+]([O-])c1cc(C(F)(F)F)ccc1N1CCN(S(=O)(=O)c2ccc3ccccc3c2)CC1 | inconclusive: 39.8 µM [inhibitor, partial curve]
CC(Oc1ccc(Br)cc1)C(=O)NCC1(N2CCCCC2)CCCCC1 (stereo unspecified) | inactive
CCOc1ccc(N2C(=O)S/C(=C\c3ccc(O)c(OCC)c3)C2=O)cc1 | inactive
CCOC(=O)c1c(N)sc2c(O)c(Br)ccc12 | inconclusive: 50.1 µM [inhibitor, partial curve]
Nc1nonc1-c1nc2ccccc2n1CC(=O)NC1CCCC1 | inactive
O=C(COc1ccc(Cl)cc1)OCc1cc(=O)n2nc(-c3cccs3)sc2n1 | inactive
CCCn1c(CCc2ccccc2)n[nH]c1=S | inactive
CN(C)c1ccc(/C=N\NC(=S)SCN2C(=O)C3CCC(C)(C2=O)C3(C)C)cc1 (stereo unspecified) | inconclusive: 8.91 µM [inhibitor, full curve]
O=C(O)c1ccc(N2Cc3ccccc3C2)cc1O | inconclusive: 79.4 µM [inhibitor, partial curve]
O=C(NCC1CCCO1)c1onc(CSc2ccc(F)c(F)c2)c1C(=O)O (stereo unspecified) | inconclusive: 89.1 µM [inhibitor, single point]

SMILES | Potency
FC(F)Oc1ccc(NC(=S)NC2CCSc3ccccc32)cc1 (stereo unspecified) | inconclusive: 79.4 µM [inhibitor, single point]
CN(C)CCNC(=O)/C(=N\O)c1ccccn1 | inconclusive: 79.4 µM [inhibitor, single point]
O=C(/C=C/c1ccc2c(c1)OCO2)Nc1c(C(=O)O)[nH]c2ccccc12 | inconclusive: 50.1 µM [inhibitor, partial curve]
CC(c1ccccc1)n1c(-c2cccs2)nc2c(c(=O)c3ccccc3n2C)c1=O (stereo unspecified) | inconclusive: 79.4 µM [inhibitor, single point]
Cc1ccc(C)c(S(=O)(=O)N2CCN(C(=O)[C@@H]3CCCN3C(=O)c3cccs3)CC2)c1 | inactive
CCCN1C(=O)CC(C(=O)OC)=C1C | inactive
COc1cc(C2C=C(Nc3ccccc3)C(=O)N2c2ccccc2)ccc1O (stereo unspecified) | inconclusive: 89.1 µM [inhibitor, single point]
CC(NS(=O)(=O)c1ccc(CCC(=O)N2CCN(C)CC2)cc1)c1ccccc1 (stereo unspecified) | inactive
O=C1N(Cc2cccc(Cl)c2)C[C@@H]2C[C@@H](c3ccccn3)N3CCC[C@@]123 | active: 79.4 µM
CCNC(=S)N/N=C/c1cc(C)n(-c2ccc(Cl)cc2)c1C | active: 28.2 µM
CCN(CC)c1ccc(NC(=O)C2=CCN(S(=O)(=O)c3ccc(F)cc3)CC2)c(C)c1 | inconclusive: 39.8 µM [inhibitor, full curve]
CSc1nc2n(n1)C(c1ccccn1)C1=C(CC(C)(C)CC1=O)N2 (stereo unspecified) | inconclusive: 89.1 µM [inhibitor, single point]
Cc1cc(C)n(C(=O)/C(C#N)=N/Nc2cc(Cl)cc(Cl)c2)n1 | inconclusive: 79.4 µM [inhibitor, partial curve]
CC(=O)C(=Nc1ccccc1Cl)NNc1ccc(Cl)cc1 | active: 28.2 µM
COCCN(C/C=C/c1ccccc1)C/C=C/c1ccccc1 | inconclusive: 89.1 µM [inhibitor, single point]
Cc1cccc(OCC(=O)N/N=C\c2cc3c(cc2[N+](=O)[O-])OCO3)c1C | inactive
COc1ccc2cc(C(=O)/C=C/c3cc(OC)c(O)c(OC)c3)ccc2c1 | inconclusive: 44.7 µM [inhibitor, partial curve]
CN(c1ccccc1)S(=O)(=O)c1cccc(C(=O)Nc2nn[nH]n2)c1 | inconclusive: 79.4 µM [inhibitor, single point]
COc1ccc(-n2nnnc2SCC(=O)NCc2ccco2)cc1OC | inconclusive: 79.4 µM [inhibitor, single point]
COc1ccc(S(=O)(=O)N(CC(=O)N2CCN(c3ccccc3)CC2)c2ccccc2)cc1 | inactive
Cc1cccc(C)c1NC(=O)C(=O)c1cn(C)c2ccccc12 | inconclusive: 79.4 µM [inhibitor, single point]
COc1ccc(C2CC(=O)c3cnc(NC(=O)c4cc(OC)cc(OC)c4)nc3C2)cc1 (stereo unspecified) | inactive
O=C(CSc1nnc(COc2ccc(Cl)cc2)o1)Nc1ccccc1 | inconclusive: 79.4 µM [inhibitor, single point]
